Experimental data: the supplement of paper PMC10126150
Values marked as one replicate rest on one cluster of the flow cell; about a third of the high ones do not repeat.
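Note: ATP exposure 15 min at 22 °C before imaging.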

These sequences were tested on ATP (assay: switch fluorescence ratio, 500 uM ATP over buffer (Cy3 cluster intensity, sum of 5 cycles each) (fold (ratio)); higher = stronger signal-on switching upon ATP binding; sequences stand for … in TCGTCGGCAGCGTCAGATGTGTATAAGAGACAGTTTTTTTTTTTTTTTTTTTTTTTTT…TC). Conditions: aptamer strand: ATP DNA aptamer (quencher-CACCTGGGGGAGTATTGCGGAGGAAGG + anchor), 100 nM annealed; ATP concentration: 500 uM; one replicate.
Summary of the method: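 Values give the fluorescence ratio for each switch-domain sequence, averaged from per-cluster ratios of summed target-cycle to summed buffer-cycle Cy3 intensity. The Cy3-labelled switching-strand clusters sat on a modified Illumina MiSeq flow-cell, were annealed to 100 nM quencher-labelled ATP aptamer, and were imaged in selection buffer, then after 15 min with 500 uM ATP at 22 °C. Five cycles ran with NaOH stripping and re-annealing between them, and clusters outside 100-1000 RFU were excluded.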
In the case of ATGTTAGAG, the switch fluorescence ratio was 1.
For ATGTTAGTTC, the switch fluorescence ratio was 1.04.
For ATGTTCAGAG, the switch fluorescence ratio was 0.984.
With ATGTTCTCGC the switch fluorescence ratio was 1.01.
With ATGTTGAAC the switch fluorescence ratio was 1.01.
With ATGTTGATGC the switch fluorescence ratio was 0.959.
Sequence ATGTTGTACC has a switch fluorescence ratio of 1.02.
In the case of ATGTTTGATA, the switch fluorescence ratio was 0.989.
For ATGTTTTAGT, the switch fluorescence ratio was 0.964.
ATTAAAAATA showed a switch fluorescence ratio of 0.999.
ATTAAATTTG was tested, and the switch fluorescence ratio was 0.991.
ATTAACAACA showed a switch fluorescence ratio of 1.01.
For ATTAACAGAT, the switch fluorescence ratio was 1.03.
ATTAAGACGA gave a switch fluorescence ratio of 0.983.
With ATTAAGATG the switch fluorescence ratio was 0.977.
Work on ATTAAGATGC yielded a switch fluorescence ratio of 1.02.
Work on ATTAAGGGG yielded a switch fluorescence ratio of 1.06.
Work on ATTAAGTTAG yielded a switch fluorescence ratio of 1.02.
ATTAATAAAT showed a switch fluorescence ratio of 1.02.
ATTAATAGAC was tested, and the switch fluorescence ratio was 1.
Work on ATTAATCCCA yielded a switch fluorescence ratio of 1.03.
ATTAATCGT showed a switch fluorescence ratio of 1.01.
ATTAATCTCC showed a switch fluorescence ratio of 1.07.
For ATTAATGCTG, the switch fluorescence ratio was 1.13.
ATTAATGTTT gave a switch fluorescence ratio of 1.
With ATTACATAGC the switch fluorescence ratio was 1.03.
ATTACATTTA showed a switch fluorescence ratio of 1.
With ATTACCCGGC the switch fluorescence ratio was 1.02.
ATTACCCGTG gave a switch fluorescence ratio of 0.99.
ATTACCTAAT gave a switch fluorescence ratio of 1.05.
For ATTACGGGTA, the switch fluorescence ratio was 1.03.
With ATTACTGTTC the switch fluorescence ratio was 1.21.
Work on ATTACTTAGT yielded a switch fluorescence ratio of 1.03.
ATTAGACAAC showed a switch fluorescence ratio of 1.04.
With ATTAGGAATC the switch fluorescence ratio was 0.996.
For ATTAGGGACA, the switch fluorescence ratio was 1.32.
With ATTAGGGGCG the switch fluorescence ratio was 1.08.
With ATTAGGTTAC the switch fluorescence ratio was 1.07.
Work on ATTAGTATCT yielded a switch fluorescence ratio of 1.01.
ATTAGTCCGC was tested, and the switch fluorescence ratio was 1.4.
For ATTAGTGGAC, the switch fluorescence ratio was 1.02.
In the case of ATTAGTGTA, the switch fluorescence ratio was 1.02.
Sequence ATTATACCAG has a switch fluorescence ratio of 1.02.
For ATTATAGCCC, the switch fluorescence ratio was 0.929.
With ATTATAGTGC the switch fluorescence ratio was 1.
ATTATATTTG showed a switch fluorescence ratio of 0.992.
For ATTATGAGTC, the switch fluorescence ratio was 1.04.
ATTATGAGTG showed a switch fluorescence ratio of 0.962.
ATTATGTGGG gave a switch fluorescence ratio of 0.934.
ATTATGTGGT was tested, and the switch fluorescence ratio was 0.979.
ATTATTGACA gave a switch fluorescence ratio of 0.975.
ATTATTGGAC showed a switch fluorescence ratio of 1.03.
With ATTATTTCGG the switch fluorescence ratio was 0.986.
In the case of ATTCAATGTT, the switch fluorescence ratio was 1.01.
In the case of ATTCACAGCC, the switch fluorescence ratio was 0.998.
Work on ATTCACAGGC yielded a switch fluorescence ratio of 1.09.
Work on ATTCACCGGC yielded a switch fluorescence ratio of 1.07.
Work on ATTCAGAGGT yielded a switch fluorescence ratio of 0.983.
Sequence ATTCAGGAAA has a switch fluorescence ratio of 1.26.
ATTCAGGGGA showed a switch fluorescence ratio of 0.968.
Sequence ATTCAGTGC has a switch fluorescence ratio of 1.05.
With ATTCATAGGG the switch fluorescence ratio was 0.986.
In the case of ATTCATGTCT, the switch fluorescence ratio was 0.998.
Sequence ATTCCCGCGG has a switch fluorescence ratio of 1.03.
For ATTCCCTGTG, the switch fluorescence ratio was 1.11.
Work on ATTCCGGGCA yielded a switch fluorescence ratio of 1.5.
Sequence ATTCCGTTAA has a switch fluorescence ratio of 1.09.
Sequence ATTCCTACCC has a switch fluorescence ratio of 1.16.
ATTCCTAGTC gave a switch fluorescence ratio of 1.06.
For ATTCCTTCGA, the switch fluorescence ratio was 1.47.
In the case of ATTCCTTGAA, the switch fluorescence ratio was 1.
In the case of ATTCGAAATT, the switch fluorescence ratio was 1.03.
For ATTCGCGTTC, the switch fluorescence ratio was 1.27.
For ATTCGGGCCT, the switch fluorescence ratio was 0.966.
Work on ATTCGGGGAT yielded a switch fluorescence ratio of 0.96.
Work on ATTCGTAAAA yielded a switch fluorescence ratio of 1.05.
In the case of ATTCGTAGAT, the switch fluorescence ratio was 0.932.
In the case of ATTCGTAGCT, the switch fluorescence ratio was 1.07.
ATTCGTGCGA was tested, and the switch fluorescence ratio was 1.04.
ATTCGTTCT was tested, and the switch fluorescence ratio was 0.961.
With ATTCTAGGGA the switch fluorescence ratio was 1.02.
Sequence ATTCTCCCG has a switch fluorescence ratio of 1.04.
Sequence ATTCTCCTAG has a switch fluorescence ratio of 1.03.
ATTCTTGATT was tested, and the switch fluorescence ratio was 0.991.
With ATTCTTGGAA the switch fluorescence ratio was 1.
Work on ATTCTTTGTC yielded a switch fluorescence ratio of 0.985.
ATTGAGAGC was tested, and the switch fluorescence ratio was 1.04.
ATTGAGGCTA was tested, and the switch fluorescence ratio was 0.989.
ATTGAGGTAT showed a switch fluorescence ratio of 0.992.
In the case of ATTGATAATG, the switch fluorescence ratio was 1.02.
ATTGATAGGC was tested, and the switch fluorescence ratio was 1.1.
With ATTGATCGTT the switch fluorescence ratio was 0.921.
ATTGCACGCA was tested, and the switch fluorescence ratio was 1.05.
With ATTGCAGGG the switch fluorescence ratio was 0.936.
ATTGCATACT showed a switch fluorescence ratio of 1.12.
In the case of ATTGCCCTGC, the switch fluorescence ratio was 0.99.
ATTGCCGCAA showed a switch fluorescence ratio of 3.04.
ATTGCCGGAT was tested, and the switch fluorescence ratio was 1.05.
Work on ATTGCGGCCG yielded a switch fluorescence ratio of 0.976.
For ATTGCGTACG, the switch fluorescence ratio was 1.03.
Work on ATTGCGTATC yielded a switch fluorescence ratio of 1.01.
